Data reported in the supplement of paper PMC8728848.
The list shows a part of the results.

What was measured:
Experiment in all cases: glycan array binding signal (z-score within array); higher = stronger binding
Conditions in all cases: glycan notation: IUPAC condensed, linker removed
[1] = biological target: Gal6S(b1-3)GlcNAc6S
In short: (§1)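 The binding signal is a Z-score computed within each array and averaged over linkers. Arrays of the same protein sequence at different concentrations or buffers were also averaged together. Data originate from 3228 arrays in the Consortium for Functional Glycomics database, kept only where the protein sequence was available.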

[2] = biological target: Gal6S(b1-4)Glc
In short: as §1

[3] = biological target: Gal6S(b1-4)Glc6S
In short: as §1

[4] = biological target: Gal6S(b1-4)GlcNAc
In short: as §1

[5] = biological target: Gal6S(b1-4)GlcNAc6S
In short: as §1

[6] = biological target: GalNAc(a1-3)Gal
In short: as §1

[7] = biological target: GalNAc(a1-3)GalNAc
In short: as §1

[8] = biological target: GalNAc(a1-3)GalNAc(a1-3)Gal(a1-4)Gal(b1-4)GlcNAc
In short: as §1

[9] = biological target: GalNAc(a1-3)GalNAc(b1-3)Gal(a1-4)Gal(b1-4)Glc
In short: as §1

[10] = biological target: GalNAc(a1-3)GalNAc(b1-3)Gal(a1-4)Gal(b1-4)GlcNAc
In short: as §1

[11] = biological target: GalNAc(b1-3)Gal
In short: as §1

[12] = biological target: GalNAc(b1-3)Gal(a1-4)Gal(b1-4)GlcNAc
In short: as §1

[13] = biological target: GalNAc(b1-3)Gal(a1-4)Gal(b1-4)GlcNAc(b1-3)Gal(b1-4)Glc
In short: as §1

[14] = biological target: GalNAc(b1-3)Gal(a1-6)Gal(b1-4)Glc
In short: as §1

[15] = biological target: GalNAc(b1-3)GalNAc
In short: as §1

[16] = biological target: GalNAc(b1-3)GlcNAc
In short: as §1

[17] = biological target: GalNAc(b1-4)Gal(b1-4)Glc
In short: as §1

[18] = biological target: GalNAc(b1-4)GlcNAc
In short: as §1

[19] = biological target: GalNAc(b1-4)GlcNAc(b1-2)Man
In short: as §1

[20] = biological target: GalNAc(b1-4)GlcNAc(b1-2)Man(a1-3)[GalNAc(b1-4)GlcNAc(b1-2)Man(a1-6)]Man(b1-4)GlcNAc(b1-4)GlcNAc
In short: as §1

[21] = biological target: GalNAc(b1-4)GlcNAc(b1-3)GalNAc(b1-4)GlcNAc
In short: as §1

[22] = biological target: GalNAc(b1-4)GlcNAc6S
In short: as §1

[23] = biological target: GalNAc(b1-6)GalNAc
In short: as §1

[24] = biological target: GalNAc3S(b1-4)GlcNAc
In short: as §1

[25] = biological target: GalNAc3S(b1-4)GlcNAc3S
In short: as §1

[26] = biological target: GalNAc3S(b1-4)[Fuc(a1-3)]GlcNAc
In short: as §1

[27] = biological target: GalNAc4S6S(b1-4)GlcNAc
In short: as §1

[28] = biological target: GalNAc6S(b1-4)GlcNAc
In short: as §1

[29] = biological target: Glc(a1-4)Glc
In short: as §1

[30] = biological target: Glc(a1-4)Glc(a1-4)Glc(a1-4)Glc
In short: as §1

[31] = biological target: Glc(a1-6)Glc(a1-6)Glc
In short: as §1

[32] = biological target: Glc(a1-6)Glc(a1-6)Glc(a1-6)Glc
In short: as §1

[33] = biological target: Glc(b1-4)Glc
In short: as §1

[34] = biological target: Glc(b1-6)Glc
In short: as §1

[35] = biological target: GlcA(b1-3)Gal
In short: as §1

[36] = biological target: GlcA(b1-3)GlcNAc
In short: as §1

[37] = biological target: GlcA(b1-6)Gal
In short: as §1

[38] = biological target: GlcA3S(b1-3)Gal(b1-4)GlcNAc(b1-2)Man
In short: as §1

B1: MAA (Maackia amurensis), P0DKL3 (protein)
chain: MATSNSKPTQVLLATFLTFFFLLLNNVNSSDELSFTINNFVPNEADLLFQGEASVSSTGVLQLTRVENGQPQKYSVGRALYAAPVRIWDNTTGSVASFSTSFTFVVKAPNPDITSDGLAFYLAPPDSQIPSGSVSKYLGLFNNSNSDSSNQIVAVELDTYFAHSYDPWDPNYRHIGIDVNGIESIKTVQWDWINGGVAFATITYLAPNKTLIASLVYPSNQTTFSVAASVDLKEILPEWVRVGFSAATGYPTEVETHDVLSWSFTSTLEANCDAATENNVHIARYTA
glycan array binding signal (z-score) [1]: -0.311 | glycan array binding signal (z-score) [2]: -0.187 | glycan array binding signal (z-score) [3]: -0.213 | glycan array binding signal (z-score) [4]: 0.36 | glycan array binding signal (z-score) [5]: -0.016 | glycan array binding signal (z-score) [6]: -0.197 | glycan array binding signal (z-score) [7]: -0.289 | glycan array binding signal (z-score) [8]: -0.221 | glycan array binding signal (z-score) [9]: -0.179 | glycan array binding signal (z-score) [10]: -0.209 | glycan array binding signal (z-score) [11]: -0.193 | glycan array binding signal (z-score) [12]: -0.26 | glycan array binding signal (z-score) [13]: -0.193 | glycan array binding signal (z-score) [14]: -0.204 | glycan array binding signal (z-score) [15]: -0.186 | glycan array binding signal (z-score) [16]: -0.22 | glycan array binding signal (z-score) [17]: -0.211 | glycan array binding signal (z-score) [18]: -0.03 | glycan array binding signal (z-score) [19]: -0.014 | glycan array binding signal (z-score) [20]: 1.18 | glycan array binding signal (z-score) [21]: -0.165 | glycan array binding signal (z-score) [22]: -0.365 | glycan array binding signal (z-score) [23]: -0.356 | glycan array binding signal (z-score) [24]: 2.31 | glycan array binding signal (z-score) [25]: -0.286 | glycan array binding signal (z-score) [26]: -0.291 | glycan array binding signal (z-score) [27]: -0.321 | glycan array binding signal (z-score) [28]: -0.065 | glycan array binding signal (z-score) [29]: -0.165 | glycan array binding signal (z-score) [30]: -0.135 | glycan array binding signal (z-score) [31]: -0.199 | glycan array binding signal (z-score) [32]: -0.192 | glycan array binding signal (z-score) [33]: -0.161 | glycan array binding signal (z-score) [34]: -0.215 | glycan array binding signal (z-score) [35]: -0.189 | glycan array binding signal (z-score) [36]: -0.245 | glycan array binding signal (z-score) [37]: -0.167 | glycan array binding signal (z-score) [38]: -0.269
